Each structure is given as a SMILES string. The list shows a part of the results. Many values rest on one well or one pass, so single values are uncertain.
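Note: cells treated in 1,536-well plates, then fixed and DAPI-stained, with nuclei counted from automated high-throughput microscope images.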

In this assay the test system is WM1716. Put plainly: cell count relative to DMSO control; melanoma cells; higher = more viable cells. The settings on record: library dose: standard library concentration; 72 h.
`CCCS(=O)(=O)Nc1ccc(F)c(C(=O)c2c[nH]c3ncc(Cl)cc23)c1F` + NC(=O)Nc1cc(-c2cccc(F)c2)sc1C(=O)N[C@H]1CCCNC1 [AZD7762] (first compound 0.4 µM, partner dose 0.1 µM) came in with a cell count of 47.8%.

With `CN(c1ncccc1CNc1nc(Nc2ccc3c(c2)CC(=O)N3)ncc1C(F)(F)F)S(C)(=O)=O` + O=c1cc(-c2cccc3c2Sc2ccccc2S3)oc(N2CCOCC2)c1 [KU55933] (first compound 0.4 µM, partner dose 5 µM), the cell count came out at 84.7%. The same measure for `CN(c1ncccc1CNc1nc(Nc2ccc3c(c2)CC(=O)N3)ncc1C(F)(F)F)S(C)(=O)=O` + O=C(O)C(=O)Nc1sc2c(c1C(=O)O)CCNC2 [TCS401] (first compound 0.4 µM, partner dose 8.33333 µM): 68.9%; for `NC1(c2ccc(-c3nc4ccn5c(=O)[nH]nc5c4cc3-c3ccccc3)cc2)CCC1` + O=S(=O)(c1ccccc1)N(CC(F)(F)F)c1ccc(C(O)(C(F)(F)F)C(F)(F)F)cc1 [T0901317] (first compound 2 µM, partner dose 7 µM): 64.9%; for `CCCS(=O)(=O)Nc1ccc(F)c(C(=O)c2c[nH]c3ncc(Cl)cc23)c1F` + O=S(=O)(c1ccccc1)N(CC(F)(F)F)c1ccc(C(O)(C(F)(F)F)C(F)(F)F)cc1 [T0901317] (first compound 0.4 µM, partner dose 7 µM): 78.5%. On to `CN(c1ncccc1CNc1nc(Nc2ccc3c(c2)CC(=O)N3)ncc1C(F)(F)F)S(C)(=O)=O` + O=C(Nc1ccccc1)c1cc([N+](=O)[O-])ccc1Cl [GW9662] (first compound 0.4 µM, partner dose 10 µM), for which the cell count worked out at 97.3%. In the case of `CS(=O)(=O)c1ccc(C(=O)Nc2ccc(Cl)c(-c3ccccn3)c2)c(Cl)c1` [vismodegib] + COc1cc2ncnc(Nc3ccc(Oc4ccccc4)cc3)c2cc1OC [SrcI1] (first compound 5 µM, partner dose 10 µM), the cell count worked out at 92.8%.

In turn, `NC1(c2ccc(-c3nc4ccn5c(=O)[nH]nc5c4cc3-c3ccccc3)cc2)CCC1` + O=C(O)C(=O)Nc1sc2c(c1C(=O)O)CCNC2 [TCS401] (first compound 2 µM, partner dose 8.33333 µM) had a cell count of 57.2%. To `NC1(c2ccc(-c3nc4ccn5c(=O)[nH]nc5c4cc3-c3ccccc3)cc2)CCC1` + COc1ccc(COc2ccc(Cc3cnc(N)nc3N)cc2OC)cc1 [GW2580] (first compound 2 µM, partner dose 5 µM) belongs 73.9%; to `CS(=O)(=O)c1ccc(C(=O)Nc2ccc(Cl)c(-c3ccccn3)c2)c(Cl)c1` [vismodegib] + Cn1cc(/C=C2\C(=O)Nc3cccnc32)c2ccccc21 [GW441756] (first compound 5 µM, partner dose 2 µM), 115%. In turn, `NC1(c2ccc(-c3nc4ccn5c(=O)[nH]nc5c4cc3-c3ccccc3)cc2)CCC1` + CCN(CC)CCCCNc1ncc2cc(-c3cc(OC)cc(OC)c3)c(NC(=O)NC(C)(C)C)nc2n1 [PD173074] (first compound 2 µM, partner dose 0.5 µM) showed a cell count of 67.6%. Compound `C=C(c1ccc(C(=O)O)cc1)c1cc2c(cc1C)C(C)(C)CCC2(C)C` [Bexarotene] + COc1ccc(-c2ccc3c(N4CCOCC4)nc(N4C[C@@H](C)O[C@@H](C)C4)nc3n2)cc1CO [KU0063794] (first compound 10 µM, partner dose 0.1 µM) registered a cell count of 77.8%. To `NC1(c2ccc(-c3nc4ccn5c(=O)[nH]nc5c4cc3-c3ccccc3)cc2)CCC1` + c1cc(-c2cnn3cc(-c4ccc(OCCN5CCCCC5)cc4)cnc23)ccn1 [Dorsomorphin] (first compound 2 µM, partner dose 2 µM) belongs 61%; to `CN(c1ncccc1CNc1nc(Nc2ccc3c(c2)CC(=O)N3)ncc1C(F)(F)F)S(C)(=O)=O` + O=S(=O)(c1ccccc1)N(CC(F)(F)F)c1ccc(C(O)(C(F)(F)F)C(F)(F)F)cc1 [T0901317] (first compound 0.4 µM, partner dose 7 µM), 70.6%. The same measure for `C=C(c1ccc(C(=O)O)cc1)c1cc2c(cc1C)C(C)(C)CCC2(C)C` [Bexarotene] + O=C1NC(=O)/C(=C/c2ccc(-c3ccc(F)cc3O)o2)S1 [AS252424] (first compound 10 µM, partner dose 5 µM): 98.4%; for `CN(c1ncccc1CNc1nc(Nc2ccc3c(c2)CC(=O)N3)ncc1C(F)(F)F)S(C)(=O)=O` + COc1cc2c(Oc3ccc4[nH]c(C)cc4c3F)ncnc2cc1OCCCN1CCCC1 [cediranib] (first compound 0.4 µM, partner dose 2 µM): 79.9%; for `CCCS(=O)(=O)Nc1ccc(F)c(C(=O)c2c[nH]c3ncc(Cl)cc23)c1F` + CCCCCCCCCCCC1=C(O)C(=O)C=C(O)C1=O [Embelin] (first compound 0.4 µM, partner dose 6 µM): 79%.

As for `CCCS(=O)(=O)Nc1ccc(F)c(C(=O)c2c[nH]c3ncc(Cl)cc23)c1F` + Cc1cc(N2CCOCC2)cc2[nH]c(-c3c(NC[C@@H](O)c4cccc(Cl)c4)cc[nH]c3=O)nc12 [BMS536924] (first compound 0.4 µM, partner dose 1 µM), the cell count stood at 65.5%. `C=C(c1ccc(C(=O)O)cc1)c1cc2c(cc1C)C(C)(C)CCC2(C)C` [Bexarotene] + Cn1cc(/C=C2\C(=O)Nc3cccnc32)c2ccccc21 [GW441756] (first compound 10 µM, partner dose 2 µM): the cell count is 83.6%.

`C=C(c1ccc(C(=O)O)cc1)c1cc2c(cc1C)C(C)(C)CCC2(C)C` [Bexarotene] + C[C@@H]1CCN(C(=O)CC#N)C[C@@H]1N(C)c1ncnc2[nH]ccc12 [CP690550] (first compound 10 µM, partner dose 5 µM): the cell count worked out at 87.8%. In turn, `C=C(c1ccc(C(=O)O)cc1)c1cc2c(cc1C)C(C)(C)CCC2(C)C` [Bexarotene] + N#Cc1c(O)c2c(-c3ccc(-c4ccccc4O)cc3)csc2[nH]c1=O [A769662] (first compound 10 µM, partner dose 10 µM) had a cell count of 72.5%. To `C=C(c1ccc(C(=O)O)cc1)c1cc2c(cc1C)C(C)(C)CCC2(C)C` [Bexarotene] + Cc1cc([N+](=O)[O-])ccc1NS(=O)(=O)c1cc(Cl)ccc1Cl [FH535] (first compound 10 µM, partner dose 5 µM) belongs 76.3%; to `CCCS(=O)(=O)Nc1ccc(F)c(C(=O)c2c[nH]c3ncc(Cl)cc23)c1F` + COc1cc2c(Oc3ccc4[nH]c(C)cc4c3F)ncnc2cc1OCCCN1CCCC1 [cediranib] (first compound 0.4 µM, partner dose 2 µM), 65.3%.

`C=C(c1ccc(C(=O)O)cc1)c1cc2c(cc1C)C(C)(C)CCC2(C)C` [Bexarotene] + CCN(CC)CCCCNc1ncc2cc(-c3cc(OC)cc(OC)c3)c(NC(=O)NC(C)(C)C)nc2n1 [PD173074] (first compound 10 µM, partner dose 0.5 µM) came in with a cell count of 76.1%.

In turn, `C=C(c1ccc(C(=O)O)cc1)c1cc2c(cc1C)C(C)(C)CCC2(C)C` [Bexarotene] + CC(C)CCN1c2nc(Nc3cc(F)c(O)c(F)c3)ncc2N(C)C(=O)C1C [BID1870] (first compound 10 µM, partner dose 1 µM) came in with a cell count of 78.8%.

As to `CS(=O)(=O)c1ccc(C(=O)Nc2ccc(Cl)c(-c3ccccn3)c2)c(Cl)c1` [vismodegib] + O=C(Nc1ccccc1)c1cc([N+](=O)[O-])ccc1Cl [GW9662] (first compound 5 µM, partner dose 10 µM), the cell count stood at 104%. The same measure for `CS(=O)(=O)c1ccc(C(=O)Nc2ccc(Cl)c(-c3ccccn3)c2)c(Cl)c1` [vismodegib] + c1cc(-c2cnn3cc(-c4ccc(OCCN5CCCCC5)cc4)cnc23)ccn1 [Dorsomorphin] (first compound 5 µM, partner dose 2 µM): 68%.

In turn, `CN(c1ncccc1CNc1nc(Nc2ccc3c(c2)CC(=O)N3)ncc1C(F)(F)F)S(C)(=O)=O` + O=C1NC(=O)/C(=C/c2ccc(-c3ccc(F)cc3O)o2)S1 [AS252424] (first compound 0.4 µM, partner dose 5 µM) displayed a cell count of 94.1%. To `CS(=O)(=O)c1ccc(C(=O)Nc2ccc(Cl)c(-c3ccccn3)c2)c(Cl)c1` [vismodegib] + CCN(CC)CCCCNc1ncc2cc(-c3cc(OC)cc(OC)c3)c(NC(=O)NC(C)(C)C)nc2n1 [PD173074] (first compound 5 µM, partner dose 0.5 µM) belongs 116%; to `C=C(c1ccc(C(=O)O)cc1)c1cc2c(cc1C)C(C)(C)CCC2(C)C` [Bexarotene] + O=c1cc(-c2cccc3c2Sc2ccccc2S3)oc(N2CCOCC2)c1 [KU55933] (first compound 10 µM, partner dose 5 µM), 92.3%; to `NC1(c2ccc(-c3nc4ccn5c(=O)[nH]nc5c4cc3-c3ccccc3)cc2)CCC1` + O=c1cc(-c2cccc3c2Sc2ccccc2S3)oc(N2CCOCC2)c1 [KU55933] (first compound 2 µM, partner dose 5 µM), 75%.

`NC1(c2ccc(-c3nc4ccn5c(=O)[nH]nc5c4cc3-c3ccccc3)cc2)CCC1` + COc1cc2ncnc(Nc3ccc(Oc4ccccc4)cc3)c2cc1OC [SrcI1] (first compound 2 µM, partner dose 10 µM) showed a cell count of 41.5%. In the case of `CCCS(=O)(=O)Nc1ccc(F)c(C(=O)c2c[nH]c3ncc(Cl)cc23)c1F` + COc1ccc(COc2ccc(Cc3cnc(N)nc3N)cc2OC)cc1 [GW2580] (first compound 0.4 µM, partner dose 5 µM), the cell count was 65.9%.

The values are drawn from the supplement of paper PMC4604168 (melanoma cell lines).
